Test results from PubChem BioAssay (NCATS).
Several values for one entry are separate records, joined by “and”; a condition that tells them apart may be missing. Identical values can stand only once. The inconclusive results got no clear call from the source; some entries with a clear call stand among them for comparison. Potencies of inconclusive entries are doubtful fits and often do not repeat. Activity calls are given as the source filed them. The call rests on the fitted dose curve; in most records, active means well fitted cell-killing curve with a large enough effect; inconclusive means small, poorly fitted or top-dose-only effect, or effect the other way; inactive means no such curve, though single readings can be large or run the other way.

experiment: Viability qHTS for spleen associated tyrosine kinase inhibitor (SYKi) drug resistant MV4-11 cells (AID 1963824); conditions: SYKi-resistant MV4-11 viability, CellTiter-Glo, 72 h; series mostly up to 45 µM; further: nearly all actives have a fitted effect of over 35% in size
Summary of the method: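 CellTiter-Glo luminescence, read 10 min after reagent addition, reports viability after a 72 hr compound exposure. Cells are an MV4-11 line made resistant to SYK inhibition, seeded at 500 per well onto compound-containing plates.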
Potency means the concentration at half of the fitted maximal effect; tags describe the fitted curve by direction and shape.

For NNc1nnc(NN)c2ccccc12, which Potency is on record?
Its Potency is “inactive”.

For Cc1[nH]c2ccccc2c1CCNCc1ccc(/C=C/C(=O)NO)cc1, which Potency is on record?
Its Potency is inconclusive: 0.0184 µM [cytotoxic, full curve].

For Cc1[nH]cnc1CN1CCc2c(c3ccccc3n2C)C1=O, which Potency is on record?
The Potency was inconclusive: 0.0053 µM [cytotoxic, full curve].

With CC1(C)S[C@@H]2[C@H](NC(=O)C(C(=O)O)c3ccccc3)C(=O)N2[C@H]1C(=O)O (some centres undefined) as the compound, how does the Potency read?
The Potency was “inactive”.

For NS(=O)(=O)c1ccc(Cl)c(S(N)(=O)=O)c1, which Potency is on record?
Its Potency is “inactive”.

Which Potency does the source give for NC(=NCCCCCCN=C(N)/N=C(\N)Nc1ccc(Cl)cc1)/N=C(\N)Nc1ccc(Cl)cc1 here?
The Potency was active: 2.99 µM and active: 1.64 µM.

For CC(C)c1c(-c2ccccc2)nc2c(C#N)c[nH]n2c1=O, which Potency is on record?
Its Potency is inconclusive: 23.5 µM [cytotoxic, single point].

For CC(CC1c2ccccc2CCc2ccccc21)CN(C)C (centres undefined), which Potency is on record?
Its Potency is inconclusive: 10.6 µM [cytotoxic, partial curve].

Which Potency does the source give for N#C[C@@H]1C[C@@H]2C[C@@H]2N1C(=O)[C@@H](N)C12CC3CC(CC(O)(C3)C1)C2 here?
Its Potency is inconclusive: 16.6 µM [cytotoxic, partial curve].

With C=CCc1ccccc1OCC(O)CNC(C)C (centres undefined) as the compound, how does the Potency read?
The Potency was inconclusive: 33.5 µM [cytotoxic, single point].

With Cn1ncc(Cl)c1-c1cc(C(=O)N[C@H](CN)Cc2cccc(F)c2)sc1Cl as the compound, how does the Potency read?
The Potency was inconclusive: 7.31 µM [cytotoxic, partial curve] and inconclusive: 2.09 µM [cytotoxic, full curve].

With O=C1S/C(=C\c2ccc(OCc3cccc(B(O)O)c3)cc2)C(=O)N1Cc1ccc(F)cc1 as the compound, how does the Potency read?
Its Potency is inconclusive: 18.6 µM [cytotoxic, partial curve].

Which Potency does the source give for CONC(=O)Nc1ccc(-c2sc3c(c2CN(C)C)c(=O)n(-c2ccc(OC)nn2)c(=O)n3Cc2c(F)cccc2F)cc1 here?
The Potency was inconclusive: 20.9 µM [cytotoxic, single point].

For Cn1ncc(NC(=O)c2nc(-c3c(F)cccc3F)sc2N)c1N1CC[C@@H](N)[C@H](F)CC1, which Potency is on record?
The Potency was inconclusive: 2.95 µM [cytotoxic, partial curve, poor fit].

For COc1ccccc1OC(=O)Oc1ccccc1OC, which Potency is on record?
The Potency was active: 5.96 µM.

Which Potency does the source give for CC(C)Oc1ccc(-c2nn([C@@H](C)c3oc4ccc(F)cc4c(=O)c3-c3cccc(F)c3)c3ncnc(N)c23)cc1F here?
Its Potency is active: 11.8 µM.

Which Potency does the source give for Nc1ccc(S(=O)(=O)Nc2ccccn2)cc1 here?
The Potency was “inactive”.

With C=CCNc1nc(NCC=C)nc(N2CCN(C(c3ccc(F)cc3)c3ccc(F)cc3)CC2)n1 as the compound, how does the Potency read?
Its Potency is inconclusive: 0.266 µM [cytotoxic, partial curve, poor fit].

Which Potency does the source give for CC(O)(P(=O)(O)O)P(=O)(O)O here?
The Potency was “inactive”.

Which Potency does the source give for O=C(Nc1ccc([N+](=O)[O-])cc1)Nc1ccc([N+](=O)[O-])cc1 here?
The Potency was inconclusive: 5.96 µM [cytotoxic, partial curve, poor fit].

With COCCOc1cnc2ccn([C@H](C)c3nnc4c(F)cc(-c5cnn(C)c5)cn34)c(=O)c2c1 as the compound, how does the Potency read?
Its Potency is “inactive”.

With COc1ccc(/C(C)=C/C(=O)O)c(OC)c1 as the compound, how does the Potency read?
The Potency was “inactive”.

With CC1=C(c2ccc(O)cc2)[C@H](c2ccc(OCCN3CCCCC3)cc2)Oc2cc(O)ccc21 as the compound, how does the Potency read?
The Potency was active: 8.33 µM.

Which Potency does the source give for Cc1ccc2c(n1)Oc1ccc(C(C)C(=O)OCC(=O)N(C)C)cc1C2 (centres undefined) here?
The Potency was inconclusive: 16.4 µM [cytotoxic, partial curve].

For CCOC(=O)O[C@]1(C(=O)OCCl)CC[C@H]2[C@@H]3CCC4=CC(=O)C=C[C@]4(C)[C@H]3[C@@H](O)C[C@@]21C, which Potency is on record?
Its Potency is inconclusive: 18.6 µM [cytotoxic, partial curve, poor fit].

For O=C1[C@@H]2[C@H]3CC[C@H](C3)[C@@H]2C(=O)N1CCCCN1CCN(c2ncccn2)CC1, which Potency is on record?
Its Potency is inconclusive: 25.9 µM [cytotoxic, single point].

For CCOC(=O)c1ccc(O)cc1, which Potency is on record?
The Potency was inconclusive: 9.44 µM [cytotoxic, partial curve, poor fit].

Which Potency does the source give for CC(=O)O[C@]1(C(C)=O)CC[C@H]2[C@@H]3C=C(Cl)C4=CC(=O)[C@@H]5C[C@@H]5[C@]4(C)[C@H]3CC[C@@]21C here?
The Potency was inconclusive: 10.6 µM [cytotoxic, partial curve] and active: 14.6 µM.

With CN(C)CC/C=C1/c2ccccc2COc2ccc(CC(=O)O)cc21 as the compound, how does the Potency read?
The Potency was “inactive”.
